The BET-seq Pho4 binding data (Le et al. 2018)
This is one part of the list. The energies were worked out here from pooled read counts, against the library average; single values are noisy.

molecular target: T1, Pho4 (S. cerevisiae) (UniProt P07270); experiment: relative binding free energy (BET-seq); higher = weaker binding; settings: reference: library average
T1 sequence: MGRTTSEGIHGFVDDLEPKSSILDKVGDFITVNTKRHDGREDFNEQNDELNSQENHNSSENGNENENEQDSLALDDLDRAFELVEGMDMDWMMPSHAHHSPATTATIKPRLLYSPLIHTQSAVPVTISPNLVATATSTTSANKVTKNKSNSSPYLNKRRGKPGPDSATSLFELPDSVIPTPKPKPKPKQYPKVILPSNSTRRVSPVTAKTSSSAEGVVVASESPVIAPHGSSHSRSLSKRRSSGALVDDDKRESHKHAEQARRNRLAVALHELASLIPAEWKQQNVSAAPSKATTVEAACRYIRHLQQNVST

| Sequence | relative binding free energy [kcal/mol] |
| --- | --- |
| CGGTACACGTGAAGGG | 0.13 |
| GTGGACACGTGGCTGA | -0.1 |
| GTGTTCACGTGGTTGT | 0.26 |
| GAGTTCACGTGGCGTA | 0.28 |
| GGTGGCACGTGATTAG | 0.1 |
| TTGGACACGTGAAGTC | 0.3 |
| GTTAGCACGTGTCGTG | -0.05 |
| AAATGCACGTGTTCAT | 0.09 |
| GATGACACGTGGAAGG | 0.19 |
| GTTTTCACGTGGTGTG | 0.27 |
| TATATCACGTGAAGAA | 0.45 |
| GTCTTCACGTGTGAAG | 0.34 |
| AGAGTCACGTGGTTTT | 0.17 |
| TAGGTCACGTGGTGTT | 0.09 |
| CATTGCACGTGGAGGT | -0.04 |
| GGTTTCACGTGGCGTC | 0.24 |
| CAGGGCACGTGGCTTG | -0.13 |
| GCTGTCACGTGCGGTT | 0.03 |
| GTAGACACGTGGGGCA | -0.19 |
| CATAACACGTGGTTTG | -0.06 |
| AGTTGCACGTGTCGGT | 0.14 |
| TAGTGCACGTGTGAGG | -0.05 |
| GGGATCACGTGTCAGG | 0.28 |
| ATAGGCACGTGACTGG | -0.03 |
| GCCTGCACGTGGGGTT | -0.2 |

| Sequence | relative binding free energy [kcal/mol] |
| --- | --- |
| GGGTGCACGTGCGCCG | -0.15 |
| TGGTTCACGTGCGATG | 0.28 |
| TTTTGCACGTGTGGCG | 0.06 |
| ACGGTCACGTGATGTA | 0.19 |
| GGTTACACGTGACGGT | 0.07 |
| TGATTCACGTGCAGTA | 0.23 |
| TAGTGCACGTGGTGCG | -0.07 |
| AGGCTCACGTGTGGGA | 0.27 |
| TGAGCCACGTGTTGGT | -0.12 |
| ATTAACACGTGATAGT | 0.1 |
| AGCTTCACGTGGGAAT | 0.2 |
| GAGCACACGTGGTAGG | 0.1 |
| GGTCACACGTGTTTTG | 0.2 |
| TTGATCACGTGCTGTA | 0.13 |
| AGTATCACGTGGTATG | 0.08 |
| ATGGACACGTGGTGTT | 0.07 |
| TGGTGCACGTGCAAGT | 0.12 |
| TAGGGCACGTGTAAGC | 0.01 |
| TTTTACACGTGAAGGG | 0.35 |
| TGTAACACGTGATGGG | 0.16 |
| GTTTCCACGTGGTTAA | 0.11 |
| TGGGACACGTGGCTGT | 0.04 |
| AGTAGCACGTGCGGAG | -0.1 |
| TTTTCCACGTGTCATG | 0.15 |
| ATTAACACGTGTGGAG | -0.05 |

| Sequence | relative binding free energy [kcal/mol] |
| --- | --- |
| AGGGACACGTGTGAAT | 0.2 |
| TGGTGCACGTGCGTAA | -0.15 |
| ATAGACACGTGTAGTG | 0.06 |
| CGGGGCACGTGGCTGC | -0.18 |
| CAAATCACGTGGTGGG | 0.2 |
| AGTTTCACGTGTTGGC | 0.39 |
| ACATTCACGTGGTTTT | 0.13 |
| ATGTCCACGTGTTTTT | 0.07 |
| ATCTTCACGTGTGTGA | 0.16 |
| AGGTACACGTGAATGA | 0.24 |
| GGTTACACGTGAAGGG | 0.32 |
| GTTGTCACGTGTAAAT | 0.1 |
| AGTGTCACGTGAATTT | 0.18 |
| TGGTACACGTGGTTAT | 0.07 |
| GTCTACACGTGTGTGA | 0.24 |
| ACGTTCACGTGAAGTT | 0.3 |
| TATTTCACGTGTTCAT | 0.21 |
| TGAGACACGTGTCTTT | 0.05 |
| CTGTGCACGTGTTGTT | -0.07 |
| GCAGGCACGTGTTGGG | -0.1 |
| TATATCACGTGACGGT | 0.28 |
| GATGTCACGTGAAGTG | 0.18 |
| TGACTCACGTGCGGGG | 0.02 |
| GGCTGCACGTGAGTGG | 0.17 |
| ATGGGCACGTGTCATA | -0.12 |

| Sequence | relative binding free energy [kcal/mol] |
| --- | --- |
| GTAGTCACGTGTGAGT | 0.11 |
| TCATTCACGTGGTTAG | 0.21 |
| TTAGTCACGTGGTCTT | -0.05 |
| GGAGGCACGTGTGTGT | 0.09 |
| GAGAGCACGTGGTGAT | -0.12 |
| ATAGGCACGTGACGTG | -0.17 |
| GGGTGCACGTGCGCGT | -0.17 |
| TGTGGCACGTGATGTC | 0.02 |
| GATGCCACGTGGTAGG | 0.06 |
| CAAGTCACGTGGTAGG | 0.05 |
| ATTATCACGTGGAAGT | 0.29 |
| TAGCGCACGTGATAGT | -0.02 |
| AGTGGCACGTGCTCAG | -0.08 |
| ATTGGCACGTGGAGTG | -0.06 |
| TGGTGCACGTGCGGTG | -0.03 |
| GGTAACACGTGTAAGA | 0.26 |
| GGCAGCACGTGGGTGA | -0.2 |
| AGTCTCACGTGTTGTC | 0.32 |
| ACTGACACGTGGCGGG | -0.01 |
| TGTATCACGTGCAGAG | 0.15 |
| AATAACACGTGGGGGC | -0.02 |
| GGATGCACGTGATATG | 0.14 |
| TGGTTCACGTGATCCG | 0.31 |
| GTGGGCACGTGGGTCC | -0.13 |
| AGTAACACGTGTAGAG | 0.06 |

| Sequence | relative binding free energy [kcal/mol] |
| --- | --- |
| CTGGTCACGTGTGTCT | 0.24 |
| GGGCCCACGTGTGTGT | -0.06 |
| CGATACACGTGGGTGT | -0.16 |
| GGGGTCACGTGGTAAT | 0.19 |
| TCGTACACGTGTGTGT | 0.05 |
| CGTTGCACGTGCATGG | -0.13 |
| AGTGTCACGTGGTAGA | 0.1 |
| CTAGGCACGTGGCGTT | -0.06 |
| AGTGGCACGTGATTCT | -0.05 |
| GTGGTCACGTGGGCAG | 0.08 |
| TAGTTCACGTGGTATG | 0.22 |
| AGTAGCACGTGGAAGG | -0.14 |
| AATGCCACGTGATGTG | 0.03 |
| TATAGCACGTGTACTG | 0.11 |
| TGGGTCACGTGATATA | 0.19 |
| TTTGACACGTGCTCTG | 0.05 |
| TTTAACACGTGATGGT | 0.12 |
| TGAATCACGTGTAAGG | 0.16 |
| TTATTCACGTGAATAG | 0.2 |
| CAATGCACGTGGTCGG | -0.04 |
| GTAAGCACGTGGCGGG | -0.17 |
| GTTAACACGTGGGTTA | -0.16 |
| TGAGGCACGTGGGGGG | -0.22 |
| TGCTTCACGTGCGTGT | 0.05 |
| TGATTCACGTGCCGGG | 0.26 |

| Sequence | relative binding free energy [kcal/mol] |
| --- | --- |
| CTACTCACGTGGGGGT | -0.04 |
| GATCTCACGTGGGCTT | 0.3 |
| TTCCGCACGTGCGGTT | 0.11 |
| GAGATCACGTGTTTGT | 0.09 |
| CTATACACGTGGGAGG | -0.08 |
| ATGGACACGTGTAGTT | 0.09 |
| TAGTGCACGTGTAGGA | -0.03 |
| TTTTGCACGTGGTAAA | -0.09 |
| AGTCTCACGTGAAGGT | 0.36 |
| TGACTCACGTGTTTGA | 0.19 |
| GGTGTCACGTGCATTG | 0.05 |
| GGGCACACGTGGGGAG | -0.05 |
| GTTTGCACGTGAAAGG | 0.23 |
| AGGATCACGTGTAATT | 0.12 |
| TTGCTCACGTGGCGTA | 0.24 |
| TTTTGCACGTGCTGGT | 0.07 |
| TGGGACACGTGTCTAT | 0.03 |
| TAGATCACGTGCTTGT | 0.02 |
| TGAGGCACGTGGTCAG | -0.19 |
| GGGGTCACGTGTGATG | 0.33 |
| AAGGACACGTGTTCGT | 0.09 |
